The list shows a part of the results.

This experiment has as its target T1, MBP-FoxP1dN (Mus musculus, UniProt P58462 326-579).
T1 sequence: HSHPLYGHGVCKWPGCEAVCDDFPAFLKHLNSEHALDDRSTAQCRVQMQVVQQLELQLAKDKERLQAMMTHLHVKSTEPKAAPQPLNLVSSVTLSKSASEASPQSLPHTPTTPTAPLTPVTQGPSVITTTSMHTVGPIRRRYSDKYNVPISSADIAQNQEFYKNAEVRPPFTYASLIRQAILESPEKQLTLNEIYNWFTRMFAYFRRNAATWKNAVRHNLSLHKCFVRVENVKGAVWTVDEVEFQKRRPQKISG
Briefly: PD-seq (MBP pull-down with sequencing); 20 mM Tris-HCl pH 7.5, 100 mM NaCl, 1.5 mM MgCl2, 0.4 uM protein, 0.1 uM dsDNA library, 30 min, room temperature, amylose pull-down; high values mean tight binding. The following applies: protein: recombinant; tags: His6-MBP; chain copies: 2; dsDNA, one strand shown. In a few lines: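 Binding is reads-per-million enrichment of pull-down over input, with replicates pooled. It comes from 30 min room-temperature incubation in Tris pH 7.5 buffer with NaCl and MgCl2 of 0.4 µM His6-MBP-tagged, N-terminally truncated mouse FoxP3 or FoxP1 fragment from E. coli with 0.1 µM Klenow-filled degenerate double-stranded DNA library, followed by amylose resin capture, three washes and Illumina sequencing of the released DNA.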
Regarding “GATGATTGTTCTCCCAGCTGATGAATTTGATTGGTCGAGTAAACAAATTTTCCTAATCTTTCTGTTCAAGCGCCATCTAC”, the binding signal is 0.963 RPM ratio (pull-down/input).
As for “GATGATTGTTCTCCCAGCTGATGAATTGGATCTGTCGAGTAAACAAATTTTCCTAATCTTTCTGTTCAAGCGCCATCTAC”, the binding signal was 0.896 RPM ratio (pull-down/input).
As for “GATGATTGTTCTCCCAGCTGATGAATTAGGCCCATCGAGTAAACAAATTTTCCTAATCTTTCTGTTCAAGCGCCATCTAC”, the figure is 0.982 RPM ratio (pull-down/input).
As for “GATGATTGTTCTCCCAGCTGATGAATTGTGGACATCGAGTAAACAAATTTTCCTAATCTTTCTGTTCAAGCGCCATCTAC”, the figure is 1.22 RPM ratio (pull-down/input).
As for “GATGATTGTTCTCCCAGCTGATGAATTGAGGAGATCGAGTAAACAAATTTTCCTAATCTTTCTGTTCAAGCGCCATCTAC”, the figure is 0.793 RPM ratio (pull-down/input); as for “GATGATTGTTCTCCCAGCTGATGAATTGGGGGGATCGAGTAAACAAATTTTCCTAATCTTTCTGTTCAAGCGCCATCTAC”, 0.778 RPM ratio (pull-down/input); as for “GATGATTGTTCTCCCAGCTGATGAATTTGCCAGCTCGAGTAAACAAATTTTCCTAATCTTTCTGTTCAAGCGCCATCTAC”, 0.835 RPM ratio (pull-down/input).
With “GATGATTGTTCTCCCAGCTGATGAATTCTAATCGTCGAGTAAACAAATTTTCCTAATCTTTCTGTTCAAGCGCCATCTAC”, the binding signal is 0.825 RPM ratio (pull-down/input).
As for “GATGATTGTTCTCCCAGCTGATGAATTCTAGGTGTCGAGTAAACAAATTTTCCTAATCTTTCTGTTCAAGCGCCATCTAC”, the figure is 0.883 RPM ratio (pull-down/input); as for “GATGATTGTTCTCCCAGCTGATGAATTTGTTGATTCGAGTAAACAAATTTTCCTAATCTTTCTGTTCAAGCGCCATCTAC”, 2.39 RPM ratio (pull-down/input); as for “GATGATTGTTCTCCCAGCTGATGAATTATACGGCTCGAGTAAACAAATTTTCCTAATCTTTCTGTTCAAGCGCCATCTAC”, 0.879 RPM ratio (pull-down/input).
As for “GATGATTGTTCTCCCAGCTGATGAATTAGGCGAATCGAGTAAACAAATTTTCCTAATCTTTCTGTTCAAGCGCCATCTAC”, the figure is 0.966 RPM ratio (pull-down/input); as for “GATGATTGTTCTCCCAGCTGATGAATTGACGCTCTCGAGTAAACAAATTTTCCTAATCTTTCTGTTCAAGCGCCATCTAC”, 1.03 RPM ratio (pull-down/input); as for “GATGATTGTTCTCCCAGCTGATGAATTTGCATTTTCGAGTAAACAAATTTTCCTAATCTTTCTGTTCAAGCGCCATCTAC”, 1.61 RPM ratio (pull-down/input).
As for “GATGATTGTTCTCCCAGCTGATGAATTAGCTTCATCGAGTAAACAAATTTTCCTAATCTTTCTGTTCAAGCGCCATCTAC”, the figure is 0.938 RPM ratio (pull-down/input); as for “GATGATTGTTCTCCCAGCTGATGAATTTATTACGTCGAGTAAACAAATTTTCCTAATCTTTCTGTTCAAGCGCCATCTAC”, 1.11 RPM ratio (pull-down/input).
Consider “GATGATTGTTCTCCCAGCTGATGAATTCCGTCTTTCGAGTAAACAAATTTTCCTAATCTTTCTGTTCAAGCGCCATCTAC”, for which the binding signal was 0.942 RPM ratio (pull-down/input).
As for “GATGATTGTTCTCCCAGCTGATGAATTGTCCTTTTCGAGTAAACAAATTTTCCTAATCTTTCTGTTCAAGCGCCATCTAC”, the figure is 1.07 RPM ratio (pull-down/input); as for “GATGATTGTTCTCCCAGCTGATGAATTTCCCGCCTCGAGTAAACAAATTTTCCTAATCTTTCTGTTCAAGCGCCATCTAC”, 0.915 RPM ratio (pull-down/input); as for “GATGATTGTTCTCCCAGCTGATGAATTCTTGCCCTCGAGTAAACAAATTTTCCTAATCTTTCTGTTCAAGCGCCATCTAC”, 0.749 RPM ratio (pull-down/input).
As for “GATGATTGTTCTCCCAGCTGATGAATTGTTTCACTCGAGTAAACAAATTTTCCTAATCTTTCTGTTCAAGCGCCATCTAC”, the figure is 1.15 RPM ratio (pull-down/input).
As for “GATGATTGTTCTCCCAGCTGATGAATTCATCTCGTCGAGTAAACAAATTTTCCTAATCTTTCTGTTCAAGCGCCATCTAC”, the binding signal is 0.935 RPM ratio (pull-down/input).
In the case of “GATGATTGTTCTCCCAGCTGATGAATTTTCCGAGTCGAGTAAACAAATTTTCCTAATCTTTCTGTTCAAGCGCCATCTAC”, the binding signal is 0.839 RPM ratio (pull-down/input).
As for “GATGATTGTTCTCCCAGCTGATGAATTACGTGTGTCGAGTAAACAAATTTTCCTAATCTTTCTGTTCAAGCGCCATCTAC”, the figure is 1.14 RPM ratio (pull-down/input).
As for “GATGATTGTTCTCCCAGCTGATGAATTTGAGCTCTCGAGTAAACAAATTTTCCTAATCTTTCTGTTCAAGCGCCATCTAC”, the figure is 0.775 RPM ratio (pull-down/input); as for “GATGATTGTTCTCCCAGCTGATGAATTATACCCCTCGAGTAAACAAATTTTCCTAATCTTTCTGTTCAAGCGCCATCTAC”, 0.871 RPM ratio (pull-down/input); as for “GATGATTGTTCTCCCAGCTGATGAATTTAAAAGCTCGAGTAAACAAATTTTCCTAATCTTTCTGTTCAAGCGCCATCTAC”, 0.909 RPM ratio (pull-down/input).
As for “GATGATTGTTCTCCCAGCTGATGAATTGCTCCGATCGAGTAAACAAATTTTCCTAATCTTTCTGTTCAAGCGCCATCTAC”, the figure is 0.965 RPM ratio (pull-down/input); as for “GATGATTGTTCTCCCAGCTGATGAATTGTTGTAGTCGAGTAAACAAATTTTCCTAATCTTTCTGTTCAAGCGCCATCTAC”, 1.71 RPM ratio (pull-down/input); as for “GATGATTGTTCTCCCAGCTGATGAATTGAACGAGTCGAGTAAACAAATTTTCCTAATCTTTCTGTTCAAGCGCCATCTAC”, 0.837 RPM ratio (pull-down/input).
For “GATGATTGTTCTCCCAGCTGATGAATTACCTGACTCGAGTAAACAAATTTTCCTAATCTTTCTGTTCAAGCGCCATCTAC”, the binding signal is 0.916 RPM ratio (pull-down/input).

Values taken from paper PMC12820563, “FoxP3 forms a head-to-head dimer in vivo and stabilizes its multimerization on adjacent microsatellites”.
